From PubChem BioAssay AID624417 (National Center for Advancing Translational Sciences (NCATS), 2012)
Values joined by “and” are separate entries in the source; they are usually repeats but may differ in a detail not shown here. Equal values may be shown once. Among all 410,000 compounds or so, about 6,400 (1.6%) were called active. The shares of active, inactive and inconclusive entries below differ from those in the screen. Calls come from the whole dose curve; as a rule, active = well fitted inhibition curve with a large enough effect; inconclusive = small, poorly fitted or top-dose-only effect; inactive = no such curve, though single readings can be large or run the other way. Where the call is inconclusive, the potency comes from a doubtful curve fit.

target: Glucagon-like peptide 1 receptor (Homo sapiens) (UniProt P43220); assay: qHTS of GLP-1 Receptor Inverse Agonists (Inhibition Mode); conditions: HEK293 GLP-1R CRE-luciferase, luminescence, 24 h, GLP-1R form is constitutively active; series mostly up to 38.3 µM; note: nearly all actives have a fitted effect of over 55% in size
Summary of the method: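 Assay principle: reduced luminescence from a cAMP-responsive reporter in HEK293 cells co-expressing a constitutively active GLP-1R. Conditions: 24 hr compound incubation, 37 deg C, 5% CO2.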
Potency is the fitted concentration of half-maximal effect; tags give direction and shape of the fitted curve.

Chain of UniProt P43220 (P43220 whole entry, looked up): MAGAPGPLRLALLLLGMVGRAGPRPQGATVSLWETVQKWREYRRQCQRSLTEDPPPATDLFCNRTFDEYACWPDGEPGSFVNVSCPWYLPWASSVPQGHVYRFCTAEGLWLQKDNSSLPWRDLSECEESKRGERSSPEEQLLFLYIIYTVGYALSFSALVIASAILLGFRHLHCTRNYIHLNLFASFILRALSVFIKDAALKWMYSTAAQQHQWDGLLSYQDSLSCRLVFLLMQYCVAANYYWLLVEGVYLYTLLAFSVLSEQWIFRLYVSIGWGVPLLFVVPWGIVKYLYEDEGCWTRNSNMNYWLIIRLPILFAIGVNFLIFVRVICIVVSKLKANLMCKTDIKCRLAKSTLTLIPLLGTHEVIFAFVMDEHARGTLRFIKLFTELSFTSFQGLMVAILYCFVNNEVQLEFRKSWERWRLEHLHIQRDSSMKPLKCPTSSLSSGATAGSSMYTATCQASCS

| SMILES | Potency |
| --- | --- |
| CC[n+]1c(C)cc2c(sc3ccccc32)c1C | inactive |
| COc1ccccc1-c1cnc(C(O)c2cc(Cl)cc(Cl)c2)[nH]1 (configuration not stated) | inconclusive: 28.2 µM [inhibitor, single point] |
| Cc1nc(N2CCN(S(=O)(=O)c3ccc(Br)cc3)CC2)c2c(C)c(C)sc2n1 | inconclusive: 7.08 µM [inhibitor, partial curve, poor fit] |
| NC(=S)NN=C1c2cc(Cl)ccc2-c2c1cc(Cl)cc2[N+](=O)[O-] | inconclusive: 1 µM [inhibitor, full curve, poor fit] |
| O=C(CCN1C(=O)/C(=C/c2ccco2)SC1=S)Nc1ccc(C(=O)O)c(O)c1 | inactive |
| O=[N+]([O-])c1ccc(C2CCCC/C2=N/OCc2ccccc2F)c([N+](=O)[O-])c1 (configuration not stated) | inconclusive: 14.1 µM [inhibitor, single point] |
| CCn1ccc2cc(S(=O)(=O)N3CCC(C(=O)NCc4ccc(OC(C)C)cc4)CC3)ccc21 | inconclusive: 15.8 µM [inhibitor, single point] |
| O=C(Nc1nnc(S(=O)(=O)N2CCCC2)s1)c1ccccc1Cl | inconclusive: 28.2 µM [inhibitor, single point] |
| COCCn1c(SCc2ccc(F)cc2)nc2ccccc2c1=O | inconclusive: 10 µM [inhibitor, partial curve, poor fit] |
| CC(=O)NC(c1cccc(F)c1)c1nc(-c2ccc(C)c(C)c2)cs1 (configuration not stated) | inconclusive: 12.6 µM [inhibitor, single point] |
| CNc1snc(C)c1C(=O)OC(C)C(=O)c1ccc(F)cc1 (configuration not stated) | inconclusive: 11.2 µM [inhibitor, single point] |
| CC1CCN(C(=O)c2[nH]cnc2C(=O)N[C@@H](C)C(=O)OCc2ccccc2)CC1 | inactive |
| CCN(CC)c1nc2c(S(=O)(=O)c3ccc(C)cc3)nnn2c2ccsc12 | inactive |
| Oc1cc2ccccc2cc1-c1nnc2n1-c1ccccc1SC2 | inactive |
| Cc1ccc(-n2ccnc(SCC(=O)NCCc3ccccc3)c2=O)cc1F | inconclusive: 28.2 µM [inhibitor, single point] |
| COc1ccc(CCNC(=S)Nc2cc(C)ccc2C)cc1 | inconclusive: 14.1 µM [inhibitor, partial curve, poor fit] |
| COC(=O)c1ccc(C(=O)NC2CC(C)(C)Cc3c2cnn3-c2ccc(F)cc2)nc1 (configuration not stated) | inconclusive: 3.98 µM [inhibitor, full curve] |
| Cc1cccc(C)c1OCc1nc2ccccc2c(=O)n1/N=C/c1c[nH]c2ccccc12 | active: 2.82 µM |
| O=C(Nc1ccccc1)c1cccc(Cn2cc(C(F)(F)F)ccc2=O)c1 | inconclusive: 31.6 µM [inhibitor, single point] |
| Fc1c(CSC(=S)N2CCOCC2)cccc1CSC(=S)N1CCOCC1 | inactive |
| Cc1cccc(CSc2ncc(Cl)c(C(=O)Nc3sc4c(c3C#N)CCCC4)n2)c1 | inactive |

| SMILES | Potency |
| --- | --- |
| O=C(Nc1ccc2c(c1)OCO2)Nc1ccccc1F | inconclusive: 11.2 µM [inhibitor, single point] |
| C=CCN(CC=C)C(=O)C1CC(=O)N(c2ccc(Br)cc2)C1 (configuration not stated) | inconclusive: 31.6 µM [inhibitor, single point] |
| O=C1OC(Cc2ccccc2)(c2ccccc2)c2ccccc21 (configuration not stated) | inconclusive: 22.4 µM [inhibitor, single point] |
| CSCCC(c1nc2ccccc2[nH]1)n1c(-c2cc(C(F)(F)F)cc(C(F)(F)F)c2)nc2ccccc21 (configuration not stated) | inconclusive: 28.2 µM [inhibitor, single point] |
| Cc1cccc(NC(=S)NCc2ccc(F)cc2)c1C | inconclusive: 3.98 µM [inhibitor, partial curve, poor fit] |
| N=c1n(CCN2CCCC2)c2ccccc2n1CC(O)c1ccc(Cl)c(Cl)c1 (configuration not stated) | inconclusive: 10 µM [inhibitor, partial curve, poor fit] |
| Cc1ccc(NC(=O)c2ccccc2NC(=O)Cc2ccccc2)cc1 | inconclusive: 22.4 µM [inhibitor, single point] |
| COc1ccc(OC)c(-c2cc(C(=O)N3CCN(c4ncccn4)CC3)c3ccccc3n2)c1 | inconclusive: 28.2 µM [inhibitor, single point] |
| CC1=C(C(=O)Nc2ccc(C)c(C)c2)C2(CCCCCC2)OC1=O | inconclusive: 10 µM [inhibitor, single point] |
| CN(c1ccccc1)S(=O)(=O)c1cccc(NC(=O)Cn2cnc3ccccc3c2=O)c1 | inconclusive: 10 µM [inhibitor, single point] |
| Cc1onc(C(=O)N2CCC(Cc3ccccc3)CC2)c1[N+](=O)[O-] | inconclusive: 6.31 µM [inhibitor, partial curve] |
| CC(=O)NC1CC2CCCC(C1)N2C(=O)Nc1ccc(Cl)c(C(F)(F)F)c1 (configuration not stated) | inconclusive: 28.2 µM [inhibitor, single point] |
| COc1ccc(CNC(=O)CCSCc2ccccc2Cl)c(OC)c1 | inconclusive: 10 µM [inhibitor, partial curve, poor fit] |
| O=C(c1ccc(Cl)cc1)N1CCC(O)(CSc2ccc(Cl)cc2)CC1 | inconclusive: 28.2 µM [inhibitor, single point] |
| C=C(C)c1nc(Oc2ccccc2)nc(Oc2ccccc2)n1 | inconclusive: 28.2 µM [inhibitor, single point] |
| Cc1cc(N2CCN(C(=O)Oc3ccc([N+](=O)[O-])cc3)CC2)c2ccccc2n1 | inconclusive: 10 µM [inhibitor, partial curve, poor fit] |
| Cc1ccc(NC(=O)c2ccc(N3C(=O)C4CC=C(Cl)CC4C3=O)cc2)cc1 (configuration not stated) | inconclusive: 1.26 µM [inhibitor, full curve] |
| Cc1nn(CC(=O)N2CCN(C)CC2)c(=O)c2c1sc1ccccc12 | inconclusive: 2.24 µM [inhibitor, full curve, poor fit] |
| Cc1ccc(Cc2c(C)nc3nc(SCC(=O)NCCCN4CCCCC4)nn3c2C)cc1 | inconclusive: 11.2 µM [inhibitor, single point] |
| Cc1sc2nc(C(C)Nc3ccccc3N3CCOCC3)[nH]c(=O)c2c1C (configuration not stated) | inconclusive: 28.2 µM [inhibitor, single point] |
| Cc1ccc(NC(=O)c2ccccc2N(C)S(=O)(=O)c2ccccc2)c(C)c1 | inconclusive: 20 µM [inhibitor, single point] |

| SMILES | Potency |
| --- | --- |
| COc1ccccc1/C=C/C(=O)NC(=S)NC(C)C | inconclusive: 28.2 µM [inhibitor, single point] |
| CC1(C)Cc2nc3sc4c(N(CCO)CCO)ncnc4c3cc2CO1 | inactive |
| COc1cc(/C=C/CN2CCN(Cc3ccc(C)o3)C(CCO)C2)ccc1O (configuration not stated) | inactive |
| CN([C@@H](C(=O)OC(C)(C)C)c1ccccc1)S(=O)(=O)c1cccc(S(=O)(=O)N(C)[C@@H](C(=O)OC(C)(C)C)c2ccccc2)c1 | inconclusive: 15.8 µM [inhibitor, partial curve, poor fit] |
| O=C(NC(=S)Nc1ccccc1N1CCOCC1)c1cccs1 | inconclusive: 11.2 µM [inhibitor, single point] |
| CCOc1cc(C)c(S(=O)(=O)NC2CC(C)(C)NC(C)(C)C2)cc1C | inconclusive: 10 µM [inhibitor, partial curve, poor fit] |
| CC(=O)c1ccc(-c2ccc([C@H]3[C@H]4C=CC[C@@H](C)[C@@H]4C(=O)N3Cc3ccccc3)c(F)c2)cc1 | inconclusive: 28.2 µM [inhibitor, single point] |
| COc1ccc(N2CCN(C(=O)c3ccc(Br)cc3)CC2)c([N+](=O)[O-])c1 | inconclusive: 31.6 µM [inhibitor, single point] |
| CCCSc1ncc(Cl)c(C(=O)Nc2ccc(CC)cc2)n1 | inconclusive: 20 µM [inhibitor, single point] |
| Cc1ccc(NC(=O)c2ccc3c(c2)S(=O)(=O)c2ccccc2C3=O)cc1S(=O)(=O)N1CCOCC1 | inactive |
| COc1cc(/C=C/c2nnc3c4ccccc4ncn23)cc(OC)c1OC | inconclusive: 28.2 µM [inhibitor, single point] |
| CN1CCN(C(=S)c2cn(Cc3ccccc3F)c3ccccc23)CC1 | inconclusive: 14.1 µM [inhibitor, single point] |
| CC1(C)C(=O)N(CC(=O)Nc2ccc(OC(F)(F)F)cc2)c2ccccc21 | inconclusive: 12.6 µM [inhibitor, single point] |
| CC(C)c1ccc(C(O)P(=O)(OC2CCCCC2)OC2CCCCC2)cc1 (configuration not stated) | inconclusive: 4.47 µM [inhibitor, full curve, poor fit] |
| Oc1cccc(Nc2nc(-c3ccccc3)nc3ccccc23)c1 | inconclusive: 15.8 µM [inhibitor, single point] and inconclusive: 2.82 µM [inhibitor, full curve] |
| CCN(CCCNC(=O)c1cc2cc3cc(OC)ccc3nc2s1)c1ccccc1 | inconclusive: 10 µM [inhibitor, single point] |
| Cc1ccc(NC(=O)c2noc3c2CCc2ccccc2-3)cc1 | inconclusive: 22.4 µM [inhibitor, single point] |
| Cc1ccc(CNC(=O)CSc2nc3ccsc3c(=O)n2-c2ccc(C(=O)O)cc2)cc1 | inactive |
| Cc1cc(F)ccc1-c1cc(C(=O)NCc2ccccc2)[nH]n1 | inconclusive: 28.2 µM [inhibitor, single point] |
| Cc1c(Cl)cccc1NC(=S)N(Cc1ccco1)C(C)c1ccccn1 (configuration not stated) | inconclusive: 15.8 µM [inhibitor, single point] |
